Experimental data: PubChem BioAssay (Tox21)
“And” between values parts separate entries of the source, which are not always exact repeats. Equal values may be shown once. The shares of active, inactive and inconclusive entries below differ from those in the screen. Potencies of inconclusive entries are doubtful fits and often do not repeat. The source made the active and inactive calls. Calls come from the whole dose curve; as a rule, active = well fitted activation curve with a large enough effect in the signal ratio in the repeat runs, with a control signal flat (not every such curve was filed as active); inconclusive = weak or mixed curves; inactive = flat fitted curve, though single readings scatter; the % refers to the signal ratio.

Assay: qHTS assay for small molecule activators of the heat shock response signaling pathway (AID 743210)
Details: HeLa HSE-bla reporter, beta-lactamase ratio, 5 h; activation: at 62.6 µM (top of the series) unless noted
Source text: U.S. Tox21 Program National Center for Advancing Translational Sciences [NCATS] NIH Chemical Genomics Center [NCGC] U.S. Environmental Protection Agency [EPA] National Institutes of Environmental Health Sciences [NIEHS] National Toxicology Program [NTP] U.S. Food and Drug Administration [FDA] Tox21 Assay Overview: Various chemicals, environmental and physiological stress conditions may lead to the activation of heat shock response/ unfolded protein response (HSR/UPR). There are three heat shock transcription factors (HSFs) (HSF-1, -2, and -4) mediating transcriptional regulation of the human HSR. To identify the compounds that activate HSR signaling, HSE-bla HeLa cell line (Invitrogen, Carlsbad, CA, USA) containing a beta-lactamase reporter gene under the control of the heat shock response elements was used to screen the Tox21 10K compound library.
Tox21 Assay Protocol Summary: The CellSensor HSE-bla HeLa cells (Invitrogen, Carlsbad, CA, USA) were dispensed at 1500 cells/6uL/well into 1536-well black wall/clear bottom plates using a Multidrop combi (Thermo Fisher Scientific, Waltham, MA) dispenser. After the assay plates were incubated at 37 C and 5% CO2 overnight, 23 nL of compounds dissolved in DMSO, positive controls or DMSO only was transferred to the assay plate by a Pintool station (Kalypsys, San Diego, CA). The plates were incubated at 37 C for 5 h. After 1 uL of LiveBLAzerTM B/G FRET substrate was added using a Flying Reagent Dispenser (Beckman Coulter, Indianapolis, IN, USA), the plates were incubated at room temperature for 2.5 h, and fluorescence intensity was measured by an Envision plate reader (PerkinElmer, Shelton, CT).
Potency is the fitted concentration of half-maximal effect; tags give direction and shape of the fitted curve or compound fluorescence and quenching.

**Q.** For `CCOC(=O)c1ccc(C#Cc2ccc3c(c2)C(C)(C)CCS3)nc1`, which Potency is on record?
**A.** inconclusive: 25.1 µM

**Q.** For `Clc1nc2ccccc2nc1Cl`, which Potency is on record?
**A.** inconclusive: 19.7 µM [partial curve, poor fit]

**Q.** With `C[Si]1(C)O[Si](C)(C)O[Si](C)(C)O[Si](C)(C)O[Si](C)(C)O1` as the compound, how does the Potency read?
**A.** inactive

**Q.** With `Nc1ccc(Oc2ccc(Cl)cc2)cc1` as the compound, how does the Potency read?
**A.** inactive

**Q.** Which Potency does the source give for `CC[N+](C)(CC)CCOC(=O)C1c2ccccc2Oc2ccccc21` here?
**A.** inconclusive: 0.335 µM [falling, full curve]

**Q.** For `CC(=O)N/N=C/c1ccc([N+](=O)[O-])o1`, which Potency is on record?
**A.** inconclusive: 33.5 µM [single point]

**Q.** Which Potency does the source give for `NCCO` here?
**A.** inconclusive: 46.2 µM

**Q.** Which Potency does the source give for `CCCCCCCCCCCCCCCC[N+](C)(C)CCN(Cc1ccc(OC)cc1)c1ncccn1` here?
**A.** inconclusive: 33.5 µM

**Q.** Which Potency does the source give for `COc1cc(C=C2CCC/C(=C\c3ccc(O)c(OC)c3)C2=O)ccc1O` here?
**A.** inconclusive: 16.8 µM

**Q.** With `C/C=C(/C(=C/C)c1ccc(O)cc1)c1ccc(O)cc1` as the compound, how does the Potency read?
**A.** inconclusive: 33.5 µM

**Q.** With `Oc1ccc(C(c2ccc(O)cc2)C(Cl)(Cl)Cl)cc1` as the compound, how does the Potency read?
**A.** inconclusive: 59.3 µM

**Q.** With `CSc1cnc(C)cn1` as the compound, how does the Potency read?
**A.** inactive

**Q.** With `CC(=O)[C@]1(O)Cc2c(O)c3c(c(O)c2[C@@H](O[C@H]2C[C@H](N)[C@H](O)[C@H](C)O2)C1)C(=O)c1ccccc1C3=O` as the compound, how does the Potency read?
**A.** inconclusive: 33.5 µM [falling, single point]

**Q.** For `COc1cc(C)nc(-n2nc(C)cc2OC)n1`, which Potency is on record?
**A.** inconclusive: 15.5 µM [activator]

**Q.** With `C/C=C/c1ccc(O)c(OC)c1` as the compound, how does the Potency read?
**A.** inactive

**Q.** Which Potency does the source give for `Nc1nc2ccc([N+](=O)[O-])cc2s1` here?
**A.** inconclusive: 42 µM [activator]

**Q.** With `CC(C)OC(=O)c1cc(C(=O)OC(C)C)cc([N+](=O)[O-])c1` as the compound, how does the Potency read?
**A.** inconclusive: 59.3 µM

**Q.** With `CCC(C)(C)C1CCCCC1OC(C)=O` (stereo not given) as the compound, how does the Potency read?
**A.** inconclusive: 29.2 µM [activator]

**Q.** With `CCCCC/C=C\C=C\C(=O)OCC` as the compound, how does the Potency read?
**A.** inconclusive: 36.1 µM

**Q.** Which Potency does the source give for `Cc1[nH]nc2c1N=C(c1ccccc1Cl)c1cc([N+](=O)[O-])ccc1N2` here?
**A.** inconclusive: 38.9 µM

**Q.** With `O=c1oc(=O)c2cc3c(=O)oc(=O)c3cc12` as the compound, how does the Potency read?
**A.** inactive

**Q.** Which Potency does the source give for `CC(C)(C)CC(C)(C)c1ccc(O)c(-n2nc3ccccc3n2)c1` here?
**A.** inactive

**Q.** With `O=c1[nH]c2ccc(Cl)cc2o1` as the compound, how does the Potency read?
**A.** inactive

**Q.** With `C=CC(=C)CCCC(C)(C)OC(C)=O` as the compound, how does the Potency read?
**A.** inactive

**Q.** With `CCCCCCCC[P+](CCCCCCCC)(CCCCCCCC)CCCCCCCC` as the compound, how does the Potency read?
**A.** inconclusive: 10.9 µM [cytotoxic, full curve]

**Q.** Which Potency does the source give for `O=C(NOCC1CC1)c1ccc(F)c(F)c1Nc1ccc(I)cc1Cl` here?
**A.** inconclusive: 35.5 µM

**Q.** For `CNCCCC12CCC(c3ccccc31)c1ccccc12`, which Potency is on record?
**A.** inconclusive: 61.6 µM

**Q.** Which Potency does the source give for `O=C(OCc1ccccc1)c1ccc(O)cc1` here?
**A.** inconclusive: 54.9 µM

**Q.** For `CCCCC1C(=O)N(c2ccccc2)N(c2ccc(O)cc2)C1=O` (stereo not given), which Potency is on record?
**A.** inconclusive: 8.74 µM

**Q.** With `C#C[C@]1(O)CC[C@H]2[C@@H]3CCC4=Cc5oncc5C[C@]4(C)[C@H]3CC[C@@]21C` as the compound, how does the Potency read?
**A.** inconclusive: 59.3 µM and inactive

**Q.** For `O=C(O)CCNC(=O)c1ccccc1`, which Potency is on record?
**A.** inactive

**Q.** Which Potency does the source give for `O=C(O)CCCCCCCCCCCBr` here?
**A.** inactive

**Q.** For `Cc1c[nH]c(=S)[nH]c1=O`, which Potency is on record?
**A.** inconclusive: 55.1 µM

**Q.** For `CCC1CO1` (stereo not given), which Potency is on record?
**A.** inactive

**Q.** For `O=C1OC2(c3cc(Br)c(O)c(Br)c3Oc3c2cc(Br)c(O)c3Br)c2c(Cl)c(Cl)c(Cl)c(Cl)c21`, which Potency is on record?
**A.** inconclusive: 53 µM [cytotoxic] and inconclusive: 36 µM

**Q.** Which Potency does the source give for `CN1CC(=O)N2[C@H](c3ccc4c(c3)OCO4)c3[nH]c4ccccc4c3C[C@@H]2C1=O` here?
**A.** inactive

**Q.** With `O=CC(=O)c1ccccc1` as the compound, how does the Potency read?
**A.** inconclusive: 29.2 µM [activator]

**Q.** For `C=COCC(C)C`, which Potency is on record?
**A.** inactive

**Q.** For `O=C(Nc1ccc(S(=O)(=O)N2CCOCC2)cc1)c1cc(Cl)ccc1NS(=O)(=O)c1ccc(Cl)s1`, which Potency is on record?
**A.** inconclusive: 22.4 µM

**Q.** For `c1cc(C(c2ccc(OCC3CO3)cc2)C(c2ccc(OCC3CO3)cc2)c2ccc(OCC3CO3)cc2)ccc1OCC1CO1` (stereo not given), which Potency is on record?
**A.** inconclusive: 10.1 µM [activator, partial curve, poor fit] and inconclusive: 7.32 µM
